# Laboratory results from PubChem BioAssay AID504332 (National Center for Advancing Translational Sciences (NCATS), 2011).
# Hit rate of the full screen: of about 350,000 compounds, about 31,000 (8.9%) were called active. Inconclusive means that the source gave no clear call. Such entries were picked first, then a sample of the others. The call rests on the fitted dose curve; in most records, active means well fitted inhibition curve with a large enough effect; inconclusive means small, poorly fitted or top-dose-only effect; inactive means no such curve, though single readings can be large or run the other way. Potencies of inconclusive entries are doubtful fits and often do not repeat.
# Molecular target: Histone-lysine N-methyltransferase EHMT2 (Homo sapiens) (UniProt Q96KQ7)
# Assay: qHTS Assay for Inhibitors of Histone Lysine Methyltransferase G9a; further: nearly all actives have a fitted effect of over 75% in size
# Settings: G9a H3K9 monomethylation, AlphaScreen, 2 h; activity, negative = inhibition: at 59 µM (top of the series) unless noted
# In short: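 Compounds were preincubated with 20 nM G9a for 15 min, after which biotinylated H3K9 peptide (500 nM) and SAM (20 uM) started a 2 h room-temperature reaction. Monomethylated product was quantified by antibody-based AlphaScreen chemiluminescence.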
# On the % scale 0 is the no-effect control and ±100 the full control effect; potency means the concentration at half of the fitted maximal effect; tags describe the fitted curve by direction and shape.
# Chain of UniProt Q96KQ7 (Q96KQ7 whole entry, looked up): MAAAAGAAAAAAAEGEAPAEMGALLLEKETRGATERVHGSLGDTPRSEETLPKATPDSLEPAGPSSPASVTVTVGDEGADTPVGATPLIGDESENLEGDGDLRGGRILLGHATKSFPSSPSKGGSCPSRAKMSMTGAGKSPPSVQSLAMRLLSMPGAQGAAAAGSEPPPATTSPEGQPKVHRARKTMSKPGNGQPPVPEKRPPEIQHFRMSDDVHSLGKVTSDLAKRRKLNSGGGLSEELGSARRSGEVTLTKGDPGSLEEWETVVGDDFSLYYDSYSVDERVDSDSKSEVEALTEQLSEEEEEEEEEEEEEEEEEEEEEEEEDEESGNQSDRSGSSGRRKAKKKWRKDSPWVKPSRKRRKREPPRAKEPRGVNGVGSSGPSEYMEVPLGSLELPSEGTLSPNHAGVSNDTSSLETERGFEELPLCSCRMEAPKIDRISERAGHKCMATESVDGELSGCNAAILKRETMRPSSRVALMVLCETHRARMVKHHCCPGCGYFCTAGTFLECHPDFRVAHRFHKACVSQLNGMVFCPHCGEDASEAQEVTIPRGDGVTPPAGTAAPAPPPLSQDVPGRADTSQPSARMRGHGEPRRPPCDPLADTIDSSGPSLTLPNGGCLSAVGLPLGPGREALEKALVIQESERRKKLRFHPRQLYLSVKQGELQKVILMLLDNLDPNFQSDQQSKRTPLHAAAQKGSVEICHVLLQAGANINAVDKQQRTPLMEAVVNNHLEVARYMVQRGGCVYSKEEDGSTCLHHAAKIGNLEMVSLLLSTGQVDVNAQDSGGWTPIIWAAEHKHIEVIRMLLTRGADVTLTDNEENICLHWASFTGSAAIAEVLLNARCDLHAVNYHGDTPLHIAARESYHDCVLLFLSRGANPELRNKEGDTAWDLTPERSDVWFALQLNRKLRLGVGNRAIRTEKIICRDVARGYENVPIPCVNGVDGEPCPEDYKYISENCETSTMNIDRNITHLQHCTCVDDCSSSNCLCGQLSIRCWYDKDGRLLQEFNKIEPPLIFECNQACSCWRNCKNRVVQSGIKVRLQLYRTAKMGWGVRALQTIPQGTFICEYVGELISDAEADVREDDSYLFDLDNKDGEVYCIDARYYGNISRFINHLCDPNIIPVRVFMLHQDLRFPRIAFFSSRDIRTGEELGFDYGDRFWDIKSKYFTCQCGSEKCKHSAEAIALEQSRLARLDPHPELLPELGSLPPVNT
SMILES,"activity, negative = inhibition",Potency
Cc1ccc(C(=O)CSc2nnc(-c3ccccc3N)n2C)cc1,inactive: -0.782% [at 2.33 µM],
Cc1cc(C(=O)OCC(=O)NC2CCCC2)c2ccccc2n1,inactive: -1.26% [at 0.501 µM],
COCCNc1nnc(SCC(=O)N(C)c2c(N)n(Cc3ccccc3)c(=O)[nH]c2=O)s1,,active: 22.4 µM
CN1CCc2c(sc(/N=C/c3cccs3)c2C(N)=O)C1,,"inconclusive: 39.8 µM [inhibitor, single point]"
COC(=O)CSc1nnc(CNS(=O)(=O)c2ccc(Br)cc2)n1C,,"inconclusive: 50.1 µM [inhibitor, partial curve, poor fit]"
Cc1ccc(Cn2c(SCC(=O)NCc3ccc(Cl)cc3)nc3ccsc3c2=O)cc1,,"inconclusive: 8.91 µM [inhibitor, single point]"
COc1cc(C(=O)NNC(=S)NC(=O)c2ccccc2C)cc(OC)c1OC,,"inconclusive: 20 µM [inhibitor, single point]"
O=C(CSc1nc2ccccc2c2nc(-c3ccccc3)nn12)Nc1ccc(Br)cc1,,inactive
CC(=O)NC1C(=O)N(CCc2ccccc2)c2ccc(Br)cc21 (stereo unspecified),,active: 11.2 µM
Cc1ccc(-n2c(O)c(/C=N/n3cnnc3)c3ccccc3c2=O)cc1,,"inconclusive: 20 µM [inhibitor, partial curve, poor fit]"
O=C(O)C(Cc1ccccc1)N1C(=O)/C(=C/c2cccc3ccccc23)SC1=S (stereo unspecified),,"inconclusive: 20 µM [inhibitor, single point]"
CN(c1cccc(NC(=O)CN(c2ccc(C34CC5CC(CC(C5)C3)C4)cc2)S(C)(=O)=O)c1)S(C)(=O)=O,,inactive
COC(=O)C1CCN(S(=O)(=O)c2cc3c4c(c2)C(C)C(=O)N4CCC3)CC1 (stereo unspecified),,"inconclusive: 39.8 µM [inhibitor, single point]"
CN(C)/C=C(\C=O)c1onc(-c2ccccc2Cl)c1C#N,,"inconclusive: 25.1 µM [inhibitor, partial curve, poor fit]"
Cc1nnc(N/N=C/c2cccc(OCc3ccc(Cl)c(Cl)c3)c2)n1N,,active: 10 µM
COc1ccc(OC)c(C(=O)c2ccc(C(=O)c3cc(OC)ccc3OC)cc2)c1,inactive: 28.5% [at 12.7 µM],
O=C(NCc1ccccc1F)C1CCCN1S(=O)(=O)c1ccc(Cl)cc1 (stereo unspecified),,inactive
Nn1c(Cc2cccc3ccccc23)nnc1SCc1c(Cl)cccc1Cl,,"inconclusive: 2.51 µM [inhibitor, full curve, poor fit]"
COCCCNC(=O)Cn1c(=O)n(-c2ccc(C)cc2)c(=O)c2c1c1cc(C)ccc1n2C,,inactive
COc1ccc(/C=N/n2c(-c3cccs3)n[nH]c2=S)cc1,,"inconclusive: 0.447 µM [inhibitor, full curve, poor fit]"
COc1ccccc1NC(=O)c1cc(N2C(=O)C3C4CCC(C4)C3C2=O)ccc1Cl (stereo unspecified),,inactive
COc1ccc(CNC(=O)CCNC(=O)N2CCn3c2nc2ccccc23)cc1,,active: 44.7 µM
CC(C)c1ccc(/C=N/NC(=O)c2cccc(S(=O)(=O)N3CCOCC3)c2)cc1,,inactive

SMILES,"activity, negative = inhibition",Potency
N#CC1=C(N)Oc2c(O)cc3ccccc3c2C1c1ccsc1 (stereo unspecified),,inactive
COCCNC(=S)N1CCc2cc(OC)c(OC)cc2C1COc1cc(C)cc(C)c1 (stereo unspecified),,inactive
CCCC[C@H]1COCCS(=O)(=O)N1Cc1cccc([N+](=O)[O-])c1,,inactive
O=C(NCC1CCCO1)c1ccc(COCC(F)(F)C(F)F)cc1 (stereo unspecified),,"inconclusive: 39.8 µM [inhibitor, single point]"
Cc1sc2nc3ccc(NCc4ccco4)nn3c(=O)c2c1C,,active: 17.8 µM
CS(=O)(=O)c1cnc2c(S(=O)(=O)c3ccccc3)cnn2c1N,,"inconclusive: 44.7 µM [inhibitor, partial curve, poor fit]"
CN1CC(c2ccccc2)C2(SC(=S)N(Cc3ccco3)C2=O)C12C(=O)Nc1ccccc12 (stereo unspecified),,"inconclusive: 25.1 µM [inhibitor, single point]"
CN(C)c1ccc(C(CNC(=O)COc2ccc(Cl)cc2)N2CCOCC2)cc1 (stereo unspecified),,"inconclusive: 10 µM [inhibitor, partial curve]"
Cc1ccccc1-c1nc(CS(=O)CC(=O)NCc2ccc3c(c2)OCO3)c(C)o1 (stereo unspecified),,"inconclusive: 56.2 µM [inhibitor, single point]"
N#Cc1cc(Oc2cccc3cccnc23)c(-n2nnc3ccccc32)cc1C#N,,"inconclusive: 10 µM [inhibitor, partial curve, poor fit]"
N#Cc1c2n(c(=S)n(-c3ccccn3)c1=O)CCCCC2,,active: 22.4 µM
O=C(NCCCNC(=O)c1ccccn1)c1cccc(F)c1,,inactive
COC(=O)c1cc(OC)c(OC)cc1NC(=O)CSc1ccccc1,inactive: -37.8% [at 0.501 µM],
Cc1ccc(Cl)cc1N1CCN(C(=O)c2cn(C3CCCCC3)c(=O)c3c2c2ccccc2n3C)CC1,,"inconclusive: 7.08 µM [inhibitor, single point]"
CCn1c2ccccc2c2cc(C3C(C#N)=C(N)Oc4n[nH]c(COC)c43)ccc21 (stereo unspecified),,"inconclusive: 3.55 µM [inhibitor, single point]"
O=C(CCS(=O)(=O)c1ccccc1)Nc1ccc(N2CCOCC2)cc1,,active: 56.2 µM
O=C(NCc1c(-n2cccc2)sc2c1CCCC2)Nc1cccc(C(F)(F)F)c1,,inactive
O=C(N/N=C/c1cn(-c2ccccc2)nc1-c1ccc2c(c1)OCCO2)c1ccncc1,,"inconclusive: 89.1 µM [inhibitor, partial curve, poor fit]"
O=C(Cn1c(=O)oc2ccccc21)Nc1n[nH]c(=S)s1,,active: 1.26 µM
O=C(CCCOc1ccccc1)Nc1nnc(C2CCCO2)s1 (stereo unspecified),,"inconclusive: 89.1 µM [inhibitor, single point]"
CCCCc1c(CCC)c(=N)c2ccccc2n1C,,inactive
Cc1ccc(CNc2ccc(N3CCOCC3)cc2)cc1,,active: 28.2 µM
CCN(CC)C(=O)c1ncn(Cc2ccccc2)c1C(=O)N(CC)CC,inactive: 9.04% [at 0.501 µM],
